Reference: patent US20210317231A1 (BYONDIS B V, published 2021)

T1: human 5T4 oncofoetal antigen (human, UniProt Q13641 32-420)
T1 sequence (looked up): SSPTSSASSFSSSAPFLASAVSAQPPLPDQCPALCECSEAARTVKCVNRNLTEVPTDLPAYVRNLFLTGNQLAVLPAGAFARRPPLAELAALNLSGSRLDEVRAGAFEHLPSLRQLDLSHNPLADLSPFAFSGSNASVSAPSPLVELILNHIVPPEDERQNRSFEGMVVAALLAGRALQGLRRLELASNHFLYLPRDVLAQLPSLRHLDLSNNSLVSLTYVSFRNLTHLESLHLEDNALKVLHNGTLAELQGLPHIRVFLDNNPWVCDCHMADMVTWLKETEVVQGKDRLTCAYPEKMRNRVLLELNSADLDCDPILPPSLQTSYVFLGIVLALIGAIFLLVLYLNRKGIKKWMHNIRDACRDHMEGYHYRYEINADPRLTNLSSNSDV


Molecular target: T1, human 5T4 oncofoetal antigen
Experiment: cell-based or functional assay

Binder | Avg IC50, in vitro cytotoxicity, MDA-MB-468 cells [nM] | Avg IC50, in vitro cytotoxicity, PA-1 cells [nM]
789c-vc-seco-DUBA (other, chain 1 pos 40: engineered Cys (Kabat HC 41) carrying the vc-seco-DUBA linker drug, written C; average DAR 1.7, also called 789c ADC) heavy: QSVEESGGGLVQPGGSLRLSCAASGFSLSSYWMSWVRQACGKGLEWIGIIAGRGSTYYASWAKGRFTISRDNSKNTLYLQMNSLRAEDTAVYYCARVSSIYYTFNLWGQGTLVTVSS[human IgG1 constant region not shown] light: DIVMTQSPDSLAVSLGERATINCQSSQSVYSNNELSWYQQKPGQPPKLLIYYASTLASGVPDRFSGSGSGTDFTLTISSLQAEDVAVYYCQGSYYSGSGWYYAFGGGTKLEIKRTVAAPSVFIFPPSDEQLKSGTASVVCLLNNFYPREAKVQWKVDNALQSGNSQESVTEQDSKDSTYSLSSTLTLSKADYEKHKVYACEVTHQGLSSPVTKSFNRGEC | 0.14 | 0.11
833a-vc-seco-DUBA (other, vc-seco-DUBA linker drug on the engineered cysteine at HC 41 (Kabat)) heavy: EVQLVESGGGLIQPGGSLRLSCAASGIDLSHYVVGWVRQACGKGLEWVSIIYGSGRTYYANWAKGRFTISKDNSKNTLYVRMNSLRAEDTAVYYCARDASVSVYYWGYFDLWGQGTLVTVSS[human IgG1 constant region not shown] light: AYDMTQSPSSVSASVGDRVTITCQASQSIGSELAWYQQKPGKAPKLLIYRASTLESGVPSRFSGSGSGTDFTLTISSLQPEDFATYYCQQGYTYSEIDNAFGGGTKVEIKRTVAAPSVFIFPPSDEQLKSGTASVVCLLNNFYPREAKVQWKVDNALQSGNSQESVTEQDSKDSTYSLSSTLTLSKADYEKHKVYACEVTHQGLSSPVTKSFNRGEC | 0.11 | 0.13
833d-vc-seco-DUBA (other, vc-seco-DUBA linker drug on the engineered cysteine at HC 41 (Kabat), also called 833d ADC) heavy: QSLEESGGGLVQPGGSLRLSCAASGIDLSHYVVGWVRQACGKGLEWIGIIYGSGRTYYANWAKGRFTISRHNSKNTLYLQMNSLRAEDTAVYYCARDASVSVYYWGYFDLWGQGTLVTVSS[human IgG1 constant region not shown] light: DIQMTQSPSSLSASVGDRVTITCQASQSIGSELAWYQQKPGQAPKLLIYRASTLESGVPSRFSGSGSGTEFTFTISSLQPEDLATYYCQQGYTYSEIDNAFGQGTKLEIKRTVAAPSVFIFPPSDEQLKSGTASVVCLLNNFYPREAKVQWKVDNALQSGNSQESVTEQDSKDSTYSLSSTLTLSKADYEKHKVYACEVTHQGLSSPVTKSFNRGEC | 0.12 | 0.18
833c-vc-seco-DUBA (other, vc-seco-DUBA linker drug on the engineered cysteine at HC 41 (Kabat), also called 833c ADC) heavy: EVQLEESGGGLVKPGGSLRLSCAASGIDLSHYVVGWVRQACGKGLEWVSIIYGSGRTYYANWAKGRFTISRDNSKNTLYLQMNSLRAEDTAVYYCARDASVSVYYWGYFDLWGRGTLVTVSS[human IgG1 constant region not shown] light: DIQMTQSPSTLSASVGDRVTITCQASQSIGSELAWYQQKPGKAPKLLIYRASTLESGVPSRFSGSGSGTEFTLTISSLQPDDFATYYCQQGYTYSEIDNAFGQGTKVEIKRTVAAPSVFIFPPSDEQLKSGTASVVCLLNNFYPREAKVQWKVDNALQSGNSQESVTEQDSKDSTYSLSSTLTLSKADYEKHKVYACEVTHQGLSSPVTKSFNRGEC | 0.13 | 0.13
833b-vc-seco-DUBA (other, vc-seco-DUBA linker drug on the engineered cysteine at HC 41 (Kabat), also called 833b ADC) heavy: EVQLVESGGGLVQPGGSLRLSCAASGIDLSHYVVGWVRQACGKGLEWVSIIYGSGRTYYANWAKGRFTISRDNSKNTLFLRMNSLRVEDTAVYFCARDASVSVYYWGYFDLWGQGTLVTVSS[human IgG1 constant region not shown] light: AYDMTQSPSSVSASVGDRVTITCQASQSIGSELAWYQQKPGKAPKLLIYRASTLESGVPSRFSGSGSGTDFTLTISSLQPEDFATYYCQQGYTYSEIDNAFGGGTKVEIKRTVAAPSVFIFPPSDEQLKSGTASVVCLLNNFYPREAKVQWKVDNALQSGNSQESVTEQDSKDSTYSLSSTLTLSKADYEKHKVYACEVTHQGLSSPVTKSFNRGEC | 0.1 | 0.13
825a-vc-seco-DUBA (other, vc-seco-DUBA linker drug on the engineered cysteine at HC 41 (Kabat), also called 825a ADC) heavy: EVQLVESGGDLAQPGGSLRLSCAVSGIDLSSYGMGWVRQACGKGLEWVSIISRNSVTYYATWAKGRFTISRDNSKNTVYLQMTSLRAEDTALYFCARRATYSGALGYFDIWGQGTLVTVSS[human IgG1 constant region not shown] light: EIVMTQSPSSLSASVGDRVTITCQASENIYSTLAWYQQKPGKAPKLLIYDAFDLASGVPSRFSGSGSGTDYTLTISSLQPEDFATYYCQQGYSGTNVDNAFGQGTKLEIKRTVAAPSVFIFPPSDEQLKSGTASVVCLLNNFYPREAKVQWKVDNALQSGNSQESVTEQDSKDSTYSLSSTLTLSKADYEKHKVYACEVTHQGLSSPVTKSFNRGEC | 0.14 | 0.11
825b-vc-seco-DUBA (other, vc-seco-DUBA linker drug on the engineered cysteine at HC 41 (Kabat), also called 825b ADC) heavy: EVQLEESGGGLVKPGGSLRLSCAASGIDLSSYGMGWVRQACGKGLEWVSIISRNSVTYYATWAKGRFTISRDNSKNTLYLQMNSLRAEDTAVYYCARRATYSGALGYFDIWGRGTLVTVSS[human IgG1 constant region not shown] light: EIVMTQSPSSLSASVGDRVTITCQASENIYSTLAWYQQKPGKAPKLLIYDAFDLASGVPSRFSGSGSGTDYTLTISSLQPEDFATYYCQQGYSGTNVDNAFGQGTKLEIKRTVAAPSVFIFPPSDEQLKSGTASVVCLLNNFYPREAKVQWKVDNALQSGNSQESVTEQDSKDSTYSLSSTLTLSKADYEKHKVYACEVTHQGLSSPVTKSFNRGEC | 0.14 | 0.12
825c-vc-seco-DUBA (other, vc-seco-DUBA linker drug on the engineered cysteine at HC 41 (Kabat), also called 825c ADC) heavy: EVQLEESGGGLVKPGGSLRLSCAASGIDLSSYGMGWVRQACGKGLEWVSIISRNSVTYYATWAKGRFTISRDNSKNTLYLQMNSLRAEDTAVYYCARRATYSGALGYFDIWGRGTLVTVSS[human IgG1 constant region not shown] light: GYDMTQSPSSVSASVGDRVTITCQASENIYSTLAWYQQKPGKAPKLLIYDAFDLASGVPSRFKGSGSGTEYTLTISSLQPEDFATYYCQQGYSGTNVDNAFGGGTKVEIKRTVAAPSVFIFPPSDEQLKSGTASVVCLLNNFYPREAKVQWKVDNALQSGNSQESVTEQDSKDSTYSLSSTLTLSKADYEKHKVYACEVTHQGLSSPVTKSFNRGEC | 0.12 | 0.09
H8-vc-seco-DUBA (other, vc-seco-DUBA linker drug, random (non-site specific) attachment through native interchain disulfide bond cysteines) heavy: QVQLVQSGAEVKKPGASVKVSCKASGYSFTGYYMHWVKQSPGQGLEWIGRINPNNGVTLYNQKFKDRVTMTRDTSISTAYMELSRLRSDDTAVYYCARSTMITNYVMDYWGQGTLVTVSS[human IgG1 constant region not shown] light: DIVMTQSPDSLAVSLGERATINCKASQSVSNDVAWYQQKPGQSPKLLISYTSSRYAGVPDRFSGSGSGTDFTLTISSLQAEDVAVYFCQQDYNSPPTFGGGTKLEIKRTVAAPSVFIFPPSDEQLKSGTASVVCLLNNFYPREAKVQWKVDNALQSGNSQESVTEQDSKDSTYSLSSTLTLSKADYEKHKVYACEVTHQGLSSPVTKSFNRGEC | 0.11 | 0.09
789a-vc-seco-DUBA (other, chain 1 pos 41: engineered Cys (Kabat HC 41) carrying the vc-seco-DUBA linker drug, written C; average DAR 1.8, also called 789a ADC) heavy: EVKVEESGGGLVQPGGSLRLSCAASGFSLSSYWMSWVRQACGKGLEWVSIIAGRGSTYYASWAKGRFTISKDNSEGMVYLQMNSLRAEDTAVYYCARVSSIYYTFNLWGQGTTVTVSS[human IgG1 constant region not shown] light: EIVLTQSPSSLSASVGDRVTITCQSSQSVYSNNELSWYQQKPGKAPKLLIYYASTLASGVPSRFSGSGSGTDFTLTISSLQPEDFATYYCQGSYYSGSGWYYAFGQGTKLEIKRTVAAPSVFIFPPSDEQLKSGTASVVCLLNNFYPREAKVQWKVDNALQSGNSQESVTEQDSKDSTYSLSSTLTLSKADYEKHKVYACEVTHQGLSSPVTKSFNRGEC |  | 0.13
789b-vc-seco-DUBA (other, chain 1 pos 41: engineered Cys (Kabat HC 41) carrying the vc-seco-DUBA linker drug, written C; average DAR 1.7, also called 789b ADC) heavy: EVQLLESGGSLVLPGGSLRLSCAASGFSLSSYWMSWVRQACGKGLEWVSIIAGRGSTYYASWAKGRFTISRDNSKNTLYMQMNSLRAEDTALYFCARVSSIYYTFNLWGQGTLVTVSS[human IgG1 constant region not shown] light: EIVLTQSPSSLSASVGDRVTITCQSSQSVYSNNELSWYQQKPGKAPKLLIYYASTLASGVPSRFSGSGSGTDFTLTISSLQPEDFATYYCQGSYYSGSGWYYAFGQGTKLEIKRTVAAPSVFIFPPSDEQLKSGTASVVCLLNNFYPREAKVQWKVDNALQSGNSQESVTEQDSKDSTYSLSSTLTLSKADYEKHKVYACEVTHQGLSSPVTKSFNRGEC | 0.14 | 0.11
789d-vc-seco-DUBA (other, chain 1 pos 40: engineered Cys (Kabat HC 41) carrying the vc-seco-DUBA linker drug, written C; average DAR 1.7, also called 789d ADC) heavy: QSVEESGGGLVQPGGSLRLSCAASGFSLSSYWMSWVRQACGKGLEWIGIIAGRGSTYYASWAKGRFTISRDNSKNTLYLQMNSLRAEDTAVYYCARVSSIYYTFNLWGQGTLVTVSS[human IgG1 constant region not shown] light: AQVLTQSPSSLSASVGDRVTITCQSSQSVYSNNELSWYQQKPGKAPKLLIYYASTLASGVPSRFSGSGSGTDFTLTISSLQPEDFATYYCQGSYYSGSGWYYAFGGGTKVEIKRTVAAPSVFIFPPSDEQLKSGTASVVCLLNNFYPREAKVQWKVDNALQSGNSQESVTEQDSKDSTYSLSSTLTLSKADYEKHKVYACEVTHQGLSSPVTKSFNRGEC | 0.1 | 0.08
